# Experimental data reported in PMC9911399, “Two distinct binding modes provide the RNA-binding protein RbFox with extraordinary sequence specificity”.
# Residue numbers refer to the chain shown, from its start. The list shows a part of the results.
# B1: CUGCAAA (DNA:RNA)
# RNA: GGGAGACCGGAAUUCAGAUUGUCCCUGCAAAUUAAAUCCCGUCGUAGCCACCA
# DNA 1: CAATCTGAATTCCGGTCTCCC
# DNA 2: TGGTGGCTACGACGGGATT
# B2: GUAACGG (DNA:RNA)
# RNA: B1 RNA with C25G, G27A, C28A, A29C, A30G, A31G
# DNA 1: CAATCTGAATTCCGGTCTCCC
# DNA 2: TGGTGGCTACGACGGGATT
# B3: GUAUCGA (DNA:RNA)
# RNA: B1 RNA with C25G, G27A, C28U, A29C, A30G
# DNA 1: CAATCTGAATTCCGGTCTCCC
# DNA 2: TGGTGGCTACGACGGGATT
# B4: CUGCAUA (DNA:RNA)
# RNA: B1 RNA with A30U
# DNA 1: CAATCTGAATTCCGGTCTCCC
# DNA 2: TGGTGGCTACGACGGGATT
# B5: AUUGACC (DNA:RNA)
# RNA: B1 RNA with C25A, G27U, C28G, A30C, A31C
# DNA 1: CAATCTGAATTCCGGTCTCCC
# DNA 2: TGGTGGCTACGACGGGATT
# B6: GUACCUC (DNA:RNA)
# RNA: B1 RNA with C25G, G27A, A29C, A30U, A31C
# DNA 1: CAATCTGAATTCCGGTCTCCC
# DNA 2: TGGTGGCTACGACGGGATT
# B7: CACGCCU (DNA:RNA)
# RNA: B1 RNA with U26A, G27C, C28G, A29C, A30C, A31U
# DNA 1: CAATCTGAATTCCGGTCTCCC
# DNA 2: TGGTGGCTACGACGGGATT
# B8: AACAAUC (DNA:RNA)
# RNA: B1 RNA with C25A, U26A, G27C, C28A, A30U, A31C
# DNA 1: CAATCTGAATTCCGGTCTCCC
# DNA 2: TGGTGGCTACGACGGGATT
# B9: UCCAUUG (DNA:RNA)
# RNA: GGGAGACCGGAAUUCAGAUUGUCCUCCAUUGUUAAAUCCCGUCGUAGCCACCA
# DNA 1: CAATCTGAATTCCGGTCTCCC
# DNA 2: TGGTGGCTACGACGGGATT
# Molecular target: T1, RBFOX1 RRM (Homo sapiens, UniProt Q9NWB1 109-208)
# T1 sequence: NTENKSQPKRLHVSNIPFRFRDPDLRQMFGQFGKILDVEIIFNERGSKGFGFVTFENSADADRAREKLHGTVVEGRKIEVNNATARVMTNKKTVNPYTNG
# Assay: EMSA; HiTS-Eq, 1 nM pool, 10 min; buffer printed only for the single-RNA assays: 10 mM Tris pH 7.5, 150 mM NaCl, 3.4 mM EDTA, 0.001% NP-40, 30 C
# Details: tags: His6 N-terminal (pET28a); label: 5' 32P
# Outline: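 These values rest on relative association constants, computed from read-count changes of each RNA species versus the control reaction and normalised to the cognate motif. Reads came from free RNA recovered by 8% native PAGE after purified RbFox RRM (wild type or mutant) at increasing concentrations was equilibrated for 10 min in 50 µL with 1 nM of a 5′-radiolabelled pool with 7 randomized nucleotides and DNA-annealed flanks.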
row,Binder,binding signal
1,B1,0.00818 KA relative to UGCAUGU
2,B2,0.00607 KA relative to UGCAUGU
3,B3,0.0176 KA relative to UGCAUGU
4,B4,0.017 KA relative to UGCAUGU
5,B5,0.00443 KA relative to UGCAUGU
6,B6,0.00416 KA relative to UGCAUGU
7,B7,0.00537 KA relative to UGCAUGU
8,B8,0.00146 KA relative to UGCAUGU
9,B9,0.0125 KA relative to UGCAUGU
